Results: publication PMC4336329 (PLoS ONE, 2015)
About 2,200 (0.71%) of roughly 310,000 compounds showed an effect of 50% or more. Effects have a minus sign here. The list shows a part of the results.

target: human ether-à-go-go-related gene (hERG) potassium channel (human, UniProt Q12809); test: primary screen, population patch clamp on CHO cells stably expressing hERG
Sequence (Q12809 whole entry, looked up): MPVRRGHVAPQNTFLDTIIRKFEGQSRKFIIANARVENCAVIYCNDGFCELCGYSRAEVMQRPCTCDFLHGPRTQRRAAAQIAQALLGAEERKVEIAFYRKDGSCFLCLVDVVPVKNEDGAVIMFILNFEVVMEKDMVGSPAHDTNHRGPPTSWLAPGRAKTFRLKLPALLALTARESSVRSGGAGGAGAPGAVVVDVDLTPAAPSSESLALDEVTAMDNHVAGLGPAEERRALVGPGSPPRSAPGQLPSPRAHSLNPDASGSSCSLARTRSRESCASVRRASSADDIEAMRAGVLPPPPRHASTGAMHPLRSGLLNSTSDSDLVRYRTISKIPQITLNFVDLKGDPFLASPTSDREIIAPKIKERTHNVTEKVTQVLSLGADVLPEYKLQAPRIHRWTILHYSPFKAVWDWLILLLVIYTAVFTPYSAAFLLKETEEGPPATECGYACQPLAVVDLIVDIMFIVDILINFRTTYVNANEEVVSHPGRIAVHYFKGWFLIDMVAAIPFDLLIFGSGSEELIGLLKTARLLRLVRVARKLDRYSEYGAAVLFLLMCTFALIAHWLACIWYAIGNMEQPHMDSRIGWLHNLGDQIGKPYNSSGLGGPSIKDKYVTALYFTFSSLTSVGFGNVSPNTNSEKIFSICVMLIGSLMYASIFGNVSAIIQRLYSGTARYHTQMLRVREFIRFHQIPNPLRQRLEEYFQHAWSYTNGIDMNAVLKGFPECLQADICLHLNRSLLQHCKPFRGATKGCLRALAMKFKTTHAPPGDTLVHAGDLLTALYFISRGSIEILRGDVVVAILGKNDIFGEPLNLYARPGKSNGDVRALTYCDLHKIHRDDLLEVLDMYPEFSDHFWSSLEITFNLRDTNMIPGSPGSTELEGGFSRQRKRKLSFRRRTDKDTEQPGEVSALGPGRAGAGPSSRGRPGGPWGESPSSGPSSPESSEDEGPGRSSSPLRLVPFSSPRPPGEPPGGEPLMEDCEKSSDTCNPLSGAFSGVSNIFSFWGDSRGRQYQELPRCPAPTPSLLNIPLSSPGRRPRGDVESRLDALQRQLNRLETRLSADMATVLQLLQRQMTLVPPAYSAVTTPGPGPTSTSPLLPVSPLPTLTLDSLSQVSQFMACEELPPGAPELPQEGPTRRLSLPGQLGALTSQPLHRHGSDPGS

Row | SMILES | hERG current change (%, negative = inhibition) at 1uM [%]
1 | COc1ccc(NC(=S)NC(=O)Cc2ccccc2)cc1 | 14.4
2 | Cc1ccccc1CS(=O)(=O)Cc1ccc(C(=O)NCCCN2CC(C)CC(C)C2)o1 (stereo not shown) | -0.544
3 | Cc1nnc(N2CCC(C(=O)N3CCCCC3)CC2)c2nn(-c3ccc(Cl)cc3)c(C)c12 | -39.5
4 | Cc1nn(-c2ccc(Cl)cc2)c(Cl)c1/C=C(\C#N)C(N)=O | 12.4
5 | CCn1cc(C2=NOC(C(=O)Nc3cccc(C(C)=O)c3)C2)c(C)n1 (stereo not shown) | -0.851
6 | CC(C)CCN(C)C1CCN(C(=O)Nc2c(F)cccc2F)CC1 | 11.7
7 | O=C(O)C1CN(C(=O)c2ccccc2)c2cc(Cl)ccc2O1 (stereo not shown) | 15.8
8 | CC(C)(C)NCCCCOc1ccccc1F | 12
9 | CCOc1ccc(C(=O)N2CCCC(c3nc(-c4ccc(C)o4)no3)C2)cc1 (stereo not shown) | -14.4
10 | COC(=O)[C@@]12CCCCN1[C@H](c1ccc(-c3ccc(C(C)=O)cc3)cc1)[C@@H]1C(=O)N(C)C(=O)[C@@H]12.O=C(O)C(F)(F)F | 13.3
11 | [S-]C(=Nc1ccc(Cl)cc1)N[n+]1ccccc1 | 6.67
12 | O=C(NCCCc1ccccc1)Nc1ccccc1 | 0.504
13 | O=C(c1cc(O)c(O)c([N+](=O)[O-])c1)c1ccccc1F | 7.1
14 | CSCCC(NS(=O)(=O)c1ccc(Cl)cc1)C(=O)OCc1c(Cl)cccc1Cl (stereo not shown) | 10.6
15 | CC1CCCC(NC(=O)C2N(CCCN3CCCC3)C(=O)C3C(C(=O)Nc4cccc(Cl)c4)C4C=CC32O4)C1C (stereo not shown) | 13.7
16 | Cc1cc(C)c2nc(NC(=O)[C@@H](NC(=O)c3cccc(S(=O)(=O)N4CCOCC4)c3)C(C)C)sc2c1 | 10.5
17 | COc1ccc(/C(C)=N/NC(=O)CNC(=O)/C=C\c2ccccc2OC)c(OC)c1 | 10.9
18 | N#CCCN(Cc1cccnc1)C(=S)NC(=O)c1ccc(S(=O)(=O)N2CCCC2)cc1 | 12.1
19 | CC(C)CN(c1ccccc1)S(=O)(=O)c1nnc(NC(=O)c2ccco2)s1 | 10.4
20 | O=C(Nc1sc2c(c1C(=O)O)CCCC2)c1ccc(Cl)cc1 | 15.8
21 | Cc1ccc(S(=O)(=O)N(C)C)cc1NC(=O)C(C)NC(C)c1cccs1 (stereo not shown) | 4.7
22 | COc1cccc(C(=O)Nc2cc3c(cc2Cl)OCCCO3)c1 | 9.18

Row | SMILES | hERG current change (%, negative = inhibition) at 1uM [%]
23 | COCc1c(C(=O)OCC(=O)N(C)C2CCS(=O)(=O)C2)oc2ccccc12 (stereo not shown) | 8.43
24 | CN(C)c1ccc(NC(=S)c2ccc3ccccc3n2)cc1 | 6.42
25 | C/C(=N\NC(=S)Nc1ccc(F)cc1)C1CC1 | -8.71
26 | Cc1ccc(C(=O)N2CC(=O)Nc3ccc(F)cc3C2c2ccccc2)cc1[N+](=O)[O-] (stereo not shown) | 4.83
27 | CCC(C)Nc1nc(-c2ccc3c(c2)NC(=O)CO3)cs1 (stereo not shown) | 17.5
28 | COc1cc2ccccc2cc1C(=O)Nc1ccc(NC(=O)c2cccs2)cc1 | 16.6
29 | Nc1c(C(=O)Nc2ccc(S(=O)(=O)N3CCCC3)cc2)sc2nc3cc4c(cc3cc12)CCC4 | 0.301
30 | COC(=O)COc1ccc(S(=O)(=O)Nc2ccc(C(N)=O)cc2)cc1 | 13.4
31 | CC(=O)c1cnn(-c2cc(Oc3ccccc3C)ncn2)c1C | 4.71
32 | O=C(CN1CCN(CC(=O)Nc2ccc(OCc3ccccc3)cc2)CC1)Nc1ccc(F)cc1 | -81.5
33 | CN(Cc1ccccc1)C(=S)Nc1ccc(OC(F)F)cc1 | 11.1
34 | O=C(COc1ccc(Cl)cc1Cl)NNC(=S)Nc1ccc(F)cc1 | -2.84
35 | Cc1c(N(C(=O)c2cc(=O)[nH]c3ccccc23)C(C)C)c(=O)n(-c2ccccc2)n1C | -2.42
36 | O=C(CN1CCN(S(=O)(=O)c2ccc(F)cc2)CC1)Nc1ccc(Cl)cn1 | -31
37 | Nc1cc(S(=O)(=O)Nc2cc(Cl)ccc2Cl)ccc1N1CCOCC1 | 8.29
38 | COc1ccc(C(=O)NCC(C)(C)SCc2c(C)cc(C)cc2C)cc1 | 15.5
39 | CCOc1ccc(-c2cccc(NC(=O)c3ccc(Br)o3)c2)nn1 | 16.1
40 | COc1ccc2ccccc2c1/C=N/Nc1cccc(C(=O)O)c1 | 9.85
41 | COc1ccc(/C(=N\O)c2ncc(C(F)(F)F)cc2Cl)cc1 | -4.22
42 | CCCCCC(=O)Nc1ccc(N2CCN(C(=O)CCC)CC2)cc1 | -2.55
43 | COC1=CC(=O)OC12CCCCC2 | 12.2
44 | COc1cc(C(=O)OC2CCOC2=O)cc(Cl)c1OC (stereo not shown) | 15.3

Row | SMILES | hERG current change (%, negative = inhibition) at 1uM [%]
45 | O=S(=O)(NCc1ccccc1)c1ccc(Br)s1 | 6.16
46 | O=C(Nc1cc(-c2ccccc2)[nH]n1)c1ccccc1 | 16.5
47 | CCCCCOC(=O)Nc1nnc(CCCCC)s1 | -9.34
48 | CCOC(=O)C1(CCCc2ccccc2)CCN(C(=O)[C@@H]2C[C@@H](C)NC(=S)N2)CC1 | 1.17
49 | CSC(=NCc1ccco1)NC#N | 0.417
50 | Cc1ccnc(NS(=O)(=O)c2ccc(NS(=O)(=O)Cc3ccccc3)cc2)n1 | 5.77
51 | COc1ccc(CSc2nnnn2-c2ccccc2)cc1 | 14.1
52 | COc1cc(C)c(S(=O)(=O)N2CCN(C)CC2)cc1C | 6.55
53 | O=C(O)c1ccc(-n2cccc2/C=C2/NC(=O)N(c3ccccc3)C2=O)cc1 | 5.53
54 | CCOc1ccc(S(=O)(=O)Nc2cc(SCC(=O)O)c(O)c3ccccc23)cc1 | 6.39
55 | Cc1sc2nc(SCC(=O)Nc3ccc(S(=O)(=O)NCCCC(=O)O)cc3)[nH]c(=O)c2c1C | 13.5
56 | O=C(CSc1nnnn1-c1ccc(O)cc1)NC1CCCCC1 | 10.4
57 | Cc1noc(C)c1S(=O)(=O)N1CCC(C(=O)N2CCN(C(=O)c3ccco3)CC2)CC1 | 14.2
58 | COC(=O)C[C@H]1c2ccccc2S(=O)(=O)N1Cc1ccc(OC)cc1 | 14
59 | CCC(C(=O)Nc1ccccc1F)n1nc(C)c2c(C)n(-c3ccccc3)nc2c1=O (stereo not shown) | 30.3
60 | CCOc1ccc2nc(NCCNC(=O)C(C)(C)C)c(C)cc2c1 | -2.85
61 | COCCNC(=S)N/N=C/c1ccc(-c2ccc([N+](=O)[O-])cc2)o1 | 13.9
62 | CCCn1ncc(CN2CCCC(C(=O)c3cccc(OC(C)C)c3)C2)c1C (stereo not shown) | -14.6
63 | CCOc1ccc(NC(=O)CC2C(=O)N(CC)C(=S)N2NC(=O)c2ccncc2)cc1 (stereo not shown) | 14.2
64 | COc1ccc(Cl)cc1S(=O)(=O)N1CCN=C1Cc1ccccc1 | 6.33
65 | CN(C)CCCNc1oc(-c2ccccc2)nc1C#N | 10.6
66 | CCN(CC)CCN(Cc1cc2cc3c(cc2[nH]c1=O)OCCO3)C(=S)NCC(C)C | 9.1

Row | SMILES | hERG current change (%, negative = inhibition) at 1uM [%]
67 | CCN1CCN(c2cc(C)c3cc(NC(=O)c4ccc(Br)o4)ccc3n2)CC1 | -1.36
68 | COc1ccc(CNCc2ccc(C)cc2)c(OC)c1.O=C(O)C(=O)O | 6.06
69 | CC(C)(C)Nc1nc(OCC(F)(F)F)nc(OCC(F)(F)F)n1 | -0.747
70 | Cc1ccc(NC(=O)CN2CCc3cc4c(cc3C2)OCCCO4)cc1C | 12.1
71 | O=C(Nc1ccc2c(c1)OCO2)c1c[nH]c(=O)n(-c2ccc(F)cc2)c1=O | 19.9
72 | CCOC(=O)/C(=C/c1ccc(F)cc1)NC(C)=O | 2.01
73 | O=C(NC1CCCCC1)C1CC(=O)N(CCc2ccc(F)cc2)C1 (stereo not shown) | 3.87
74 | C=CCn1c(=S)[nH]c2ccc(Br)cc2c1=O | 5.42
75 | CCCn1c2ccccc2c2nnc(SCC(=O)Nc3ncccn3)nc21 | -4.22
76 | CN(C)C(=O)Oc1ccc(NC(=O)N2CCOCC2)cc1 | 13.8
77 | c1ccc(NCCCNc2ccccc2)cc1 | 11.5
78 | CCn1c(CC(=O)Nc2ccccc2F)nnc1SCC(=O)N1CCN(c2ccccc2)CC1 | 10.1
79 | Fc1cccc(Cn2ccc(-c3ccc4c(c3)OCO4)n2)c1 | 8.45
80 | NS(=O)(=O)c1ccc(CCNC(=O)C2CC(=O)N(Cc3ccccc3Cl)C2)cc1 (stereo not shown) | 5.89
81 | CC/C(=N\NC(=O)c1cc(C)nc2ccccc12)c1ccc(C)s1 | -2.73
82 | COC(=O)c1ccc(N2C(=O)CC(Sc3n[nH]c(C)n3)C2=O)cc1 (stereo not shown) | -0.0585
83 | CCC/C=N/O | 12.4
84 | Cc1ccc2ncnc(NCCCCCC(=O)O)c2c1.Cl | 19.2
85 | COc1ccc2[nH]c(C(=O)N(C)Cc3ccccc3)c(C)c2c1 | 14.1
86 | Cc1ccsc1-c1cc(C(=O)O)c2c(ccc3ccccc32)n1 | 14.2
87 | O=C(C(=O)N1CCOCC1)c1cn(CCOc2ccccc2)c2ccccc12 | -0.524
88 | Cc1cc(C)c2cc(CN(CCCN(C)C)C(=S)NCc3ccccc3)c(=O)[nH]c2c1 | -0.759
